The BET-seq Pho4 binding data (Le et al. 2018)
This is one part of the list. Values were computed here from the reads of four pooled replicates and scatter widely.

The sequences below were run against T1, Pho4 (S. cerevisiae) (UniProt P07270) (assay: relative binding free energy (BET-seq); higher = weaker binding). Conditions: reference: library average.
T1 sequence: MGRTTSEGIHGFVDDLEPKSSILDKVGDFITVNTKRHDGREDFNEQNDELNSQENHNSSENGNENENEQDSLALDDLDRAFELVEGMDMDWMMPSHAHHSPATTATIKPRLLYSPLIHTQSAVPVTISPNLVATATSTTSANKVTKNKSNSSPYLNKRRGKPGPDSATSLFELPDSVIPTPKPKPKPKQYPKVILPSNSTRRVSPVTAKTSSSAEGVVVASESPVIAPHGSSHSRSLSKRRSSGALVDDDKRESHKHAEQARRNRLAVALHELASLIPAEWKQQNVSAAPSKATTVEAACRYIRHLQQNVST

Sequence	relative binding free energy
GGCATCACGTGAGTGG	0.34 kcal/mol
GGATTCACGTGAAGGT	0.33 kcal/mol
GTTGGCACGTGAGATG	0.16 kcal/mol
ATGGTCACGTGGCATT	-0.07 kcal/mol
ATACGCACGTGGTAGT	-0.2 kcal/mol
GGTTACACGTGTAGGC	0.3 kcal/mol
TTTGACACGTGAAAGG	0.27 kcal/mol
TAGGGCACGTGTGGCA	-0.12 kcal/mol
ATGAACACGTGGGCGT	-0.22 kcal/mol
GGAGGCACGTGTTTCT	-0.08 kcal/mol
TATTTCACGTGTGATC	0.22 kcal/mol
GGGTTCACGTGTTGTG	0.34 kcal/mol
AGACTCACGTGGGGAG	0.37 kcal/mol
CGTCGCACGTGATGGT	0.15 kcal/mol
GAAGTCACGTGGTCAG	0.11 kcal/mol
TGGAACACGTGTAGGG	-0.06 kcal/mol
GGTACCACGTGGTGAT	-0.03 kcal/mol
GTCGTCACGTGGTATA	0.14 kcal/mol
TTACGCACGTGAAGTG	0.15 kcal/mol
GTCAGCACGTGGGGTG	-0.26 kcal/mol
GTGGTCACGTGAGGAA	0.34 kcal/mol
GTTGGCACGTGTTTTC	-0.06 kcal/mol
TAGTGCACGTGGGAAC	-0.04 kcal/mol
GTGTGCACGTGGTGGA	-0.01 kcal/mol
CGCATCACGTGTTTGG	0.13 kcal/mol

Sequence	relative binding free energy
CTTAACACGTGGGTTA	-0.12 kcal/mol
GTCTACACGTGTTGAG	0.15 kcal/mol
CATTTCACGTGGGATT	0.21 kcal/mol
TAGTGCACGTGTTGGC	0.02 kcal/mol
GAAATCACGTGATGTA	0.37 kcal/mol
AGGTTCACGTGTAGGT	0.26 kcal/mol
GCGATCACGTGGTGAT	0.14 kcal/mol
GCTGTCACGTGGAGAG	0.14 kcal/mol
AGAGGCACGTGCTTAT	0 kcal/mol
TTGGGCACGTGCGCGT	-0.22 kcal/mol
TAATGCACGTGTGGGC	0.04 kcal/mol
TTTAGCACGTGGGATG	-0.14 kcal/mol
TGGATCACGTGGCTAG	0.1 kcal/mol
GATAGCACGTGTCTGG	0.01 kcal/mol
GATGTCACGTGGAATT	0.42 kcal/mol
TGCAGCACGTGGGTGG	-0.19 kcal/mol
TTGCGCACGTGGTCGT	-0.12 kcal/mol
TTGGGCACGTGCGTGG	-0.12 kcal/mol
GGTTTCACGTGACGAT	0.42 kcal/mol
TTGATCACGTGTATTC	0.17 kcal/mol
AAGGTCACGTGGCAGG	0.14 kcal/mol
GGTGACACGTGTGCCT	0.2 kcal/mol
CGGAGCACGTGATGTT	0.04 kcal/mol
TAAGTCACGTGATATG	0.02 kcal/mol
GAGGGCACGTGATAGC	0.05 kcal/mol

Sequence	relative binding free energy
ATGGCCACGTGGTGTA	-0.16 kcal/mol
AAGATCACGTGGGTTA	0.11 kcal/mol
TGTGTCACGTGGAGCC	0.13 kcal/mol
TTCTACACGTGGTGTC	0.11 kcal/mol
CGTTGCACGTGATCGT	0.06 kcal/mol
TAATGCACGTGGTCGG	-0.24 kcal/mol
AGTCACACGTGTGGTA	0.13 kcal/mol
GTTTTCACGTGCGTGT	0.28 kcal/mol
AGTTTCACGTGGAATA	0.37 kcal/mol
AGATACACGTGATATG	0.12 kcal/mol
TACGTCACGTGTGTAA	0 kcal/mol
GGGAGCACGTGATTTT	0.11 kcal/mol
AGTCGCACGTGGCATG	-0.08 kcal/mol
GTTGTCACGTGTAAGT	0.18 kcal/mol
CTTTTCACGTGCATGG	0.31 kcal/mol
TTTTACACGTGGATTA	0.29 kcal/mol
TTTCGCACGTGGTGCA	-0.22 kcal/mol
ATAGGCACGTGTTTCT	-0.2 kcal/mol
ACGAGCACGTGTTAGG	-0.07 kcal/mol
AAAAGCACGTGAGGTT	0.08 kcal/mol
TTCTGCACGTGAGTGT	0.3 kcal/mol
CTGAGCACGTGAGGTA	0.12 kcal/mol
ATGGGCACGTGAGGTG	0.06 kcal/mol
